# Assay results from the supplement of paper PMC8728848.
# Some of the results follow.
# Assays:
# Experiment in all cases: glycan array binding signal (z-score within array); higher = stronger binding
# Conditions in all cases: glycan notation: IUPAC condensed, linker removed
# [1] = molecular target: Fuc(a1-2)Gal(b1-4)[Fuc(a1-3)]GlcNAc
# Method in brief: (§1)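 From the Consortium for Functional Glycomics database, 3228 arrays were curated, keeping only those whose protein sequence was available. Binding is given as a within-array Z-score averaged across arrays sharing a protein sequence and across linkers. Negative Z-scores can be read as non-binding.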
# [2] = molecular target: Fuc(a1-2)Gal(b1-4)[Fuc(a1-3)]GlcNAc(b1-2)Man(a1-3)[Fuc(a1-2)Gal(b1-4)[Fuc(a1-3)]GlcNAc(b1-2)Man(a1-6)]Man(b1-4)GlcNAc(b1-4)GlcNAc
# Method in brief: as §1
# [3] = molecular target: Fuc(a1-2)Gal(b1-4)[Fuc(a1-3)]GlcNAc(b1-2)[Fuc(a1-2)Gal(b1-4)[Fuc(a1-3)]GlcNAc(b1-4)]Man(a1-3)[Fuc(a1-2)Gal(b1-4)[Fuc(a1-3)]GlcNAc(b1-2)Man(a1-6)]Man(b1-4)GlcNAc(b1-4)GlcNAc
# Method in brief: as §1
# [4] = molecular target: Fuc(a1-2)Gal(b1-4)[Fuc(a1-3)]GlcNAc(b1-3)Gal(b1-4)[Fuc(a1-3)]GlcNAc
# Method in brief: as §1
# [5] = molecular target: Fuc(a1-2)Gal(b1-4)[Fuc(a1-3)]GlcNAc(b1-3)Gal(b1-4)[Fuc(a1-3)]GlcNAc(b1-3)Gal(b1-4)[Fuc(a1-3)]GlcNAc
# Method in brief: as §1
# [6] = molecular target: Fuc(a1-2)Gal(b1-4)[Fuc(a1-3)]GlcNAc(b1-3)GalNAc
# Method in brief: as §1
# [7] = molecular target: Fuc(a1-2)Gal6S(b1-4)Glc
# Method in brief: as §1
# [8] = molecular target: Fuc(a1-2)Gal6S(b1-4)Glc6S
# Method in brief: as §1
# [9] = molecular target: Fuc(a1-2)Gal6S(b1-4)GlcNAc
# Method in brief: as §1
# [10] = molecular target: Fuc(a1-2)[Gal(a1-3)]Gal
# Method in brief: as §1
# [11] = molecular target: Fuc(a1-2)[Gal(a1-3)]Gal(b1-3)GalNAc
# Method in brief: as §1
# [12] = molecular target: Fuc(a1-2)[Gal(a1-3)]Gal(b1-3)GlcNAc
# Method in brief: as §1
# [13] = molecular target: Fuc(a1-2)[Gal(a1-3)]Gal(b1-3)GlcNAc(b1-2)Man(a1-3)[Fuc(a1-2)[Gal(a1-3)]Gal(b1-3)GlcNAc(b1-2)Man(a1-6)]Man(b1-4)GlcNAc(b1-4)GlcNAc
# Method in brief: as §1
# [14] = molecular target: Fuc(a1-2)[Gal(a1-3)]Gal(b1-3)GlcNAc(b1-2)Man(a1-3)[Fuc(a1-2)[Gal(a1-3)]Gal(b1-3)GlcNAc(b1-2)Man(a1-6)]Man(b1-4)GlcNAc(b1-4)[Fuc(a1-6)]GlcNAc
# Method in brief: as §1
# [15] = molecular target: Fuc(a1-2)[Gal(a1-3)]Gal(b1-3)GlcNAc(b1-3)GalNAc
# Method in brief: as §1
# [16] = molecular target: Fuc(a1-2)[Gal(a1-3)]Gal(b1-4)Glc
# Method in brief: as §1
# [17] = molecular target: Fuc(a1-2)[Gal(a1-3)]Gal(b1-4)GlcNAc
# Method in brief: as §1
# [18] = molecular target: Fuc(a1-2)[Gal(a1-3)]Gal(b1-4)GlcNAc(b1-2)Man(a1-3)[Fuc(a1-2)[Gal(a1-3)]Gal(b1-4)GlcNAc(b1-2)Man(a1-6)]Man(b1-4)GlcNAc(b1-4)GlcNAc
# Method in brief: as §1
# [19] = molecular target: Fuc(a1-2)[Gal(a1-3)]Gal(b1-4)GlcNAc(b1-2)Man(a1-3)[Fuc(a1-2)[Gal(a1-3)]Gal(b1-4)GlcNAc(b1-2)Man(a1-6)]Man(b1-4)GlcNAc(b1-4)[Fuc(a1-6)]GlcNAc
# Method in brief: as §1
# [20] = molecular target: Fuc(a1-2)[Gal(a1-3)]Gal(b1-4)GlcNAc(b1-3)GalNAc
# Method in brief: as §1
# [21] = molecular target: Fuc(a1-2)[Gal(a1-3)]Gal(b1-4)[Fuc(a1-3)]Glc
# Method in brief: as §1
# [22] = molecular target: Fuc(a1-2)[Gal(a1-3)]Gal(b1-4)[Fuc(a1-3)]GlcNAc
# Method in brief: as §1
# [23] = molecular target: Fuc(a1-2)[Gal(a1-3)]Gal(b1-4)[Fuc(a1-3)]GlcNAc(b1-3)GalNAc
# Method in brief: as §1
# [24] = molecular target: Fuc(a1-2)[Gal(a1-4)]Gal(b1-4)GlcNAc
# Method in brief: as §1
# [25] = molecular target: Fuc(a1-2)[GalNAc(a1-3)]Gal
# Method in brief: as §1
# [26] = molecular target: Fuc(a1-2)[GalNAc(a1-3)]Gal(b1-3)GalNAc(a1-3)[Fuc(a1-2)]Gal(b1-4)GlcNAc
# Method in brief: as §1
# [27] = molecular target: Fuc(a1-2)[GalNAc(a1-3)]Gal(b1-3)GlcNAc
# Method in brief: as §1
# [28] = molecular target: Fuc(a1-2)[GalNAc(a1-3)]Gal(b1-3)GlcNAc(b1-2)Man(a1-3)[Fuc(a1-2)[GalNAc(a1-3)]Gal(b1-3)GlcNAc(b1-2)Man(a1-6)]Man(b1-4)GlcNAc(b1-4)GlcNAc
# Method in brief: as §1
# [29] = molecular target: Fuc(a1-2)[GalNAc(a1-3)]Gal(b1-3)GlcNAc(b1-2)Man(a1-3)[Fuc(a1-2)[GalNAc(a1-3)]Gal(b1-3)GlcNAc(b1-2)Man(a1-6)]Man(b1-4)GlcNAc(b1-4)[Fuc(a1-6)]GlcNAc
# Method in brief: as §1
# [30] = molecular target: Fuc(a1-2)[GalNAc(a1-3)]Gal(b1-3)GlcNAc(b1-3)GalNAc
# Method in brief: as §1
binder,measurement,setting,value
"NanI (Corynebacterium diphtheriae), C6JSW7 (protein) MTNTLESNPMTTTTGALTITFATTCDGPLAHIPHHLDLNIIHGRIQGTTAHRRIDAEDPDGLDDGLPHHLCLSVDTTGTHLFIDGYEAFSTTQTEWFDTSELTLNPHGDLTIIDHQILNHAPTPRQARNLAPAAEPLVWFAGSHLSTRDTQRISHLTHGSLRLLMKTRGTGQGGVAFQAHTINGDLTLEIIDGTLIFSVRCHDEDYVRITAPGRWDDGQIYDVVIVCGRGATDIYVDGQQLIHSPGAAFFNDLSGELSVHIGTAASGVRLFGEVQSGMIYPHVFNHHQVQRLATVEPIATQALFDCLLDGAQSYRIPSLITTDSGVIIAGADKRVSIANDAPNDIDFVLRRSVDGGRTWQPPRTILQLPDTACVTDSVLLQDHTTGRIFAFLDQFPAGIGQPNAAFGTGFDADGNRIGHFADGSTCTMPREVDQLEASFFSDPHTAPPGIVFQHPSCHLWMLTSDDDGLTWSTPRDLTPDVKEEWMRFCGTSPGNGIQLQRDTHAGRLLIPMYYTKGDQFFAAALYSDDHGDTWHRGESPDLEMYESTLVEASDGSVLLWARNQHPSGAVAHARSTDGGHSWSQVTFNPNVPEIFSQPNALRVTNPDGIIFANASQLLPFRGRGVLRMSTNDGASWQHNRVFNPRHYVYQCMTQLPDGSIGLLWEREMQGLFFSIIPMTWIMQGYAL",glycan array binding signal (z-score),[1],-0.061
same,glycan array binding signal (z-score),[2],2.78
same,glycan array binding signal (z-score),[3],1.05
same,glycan array binding signal (z-score),[4],-0.866
same,glycan array binding signal (z-score),[5],-0.733
same,glycan array binding signal (z-score),[6],6.81
same,glycan array binding signal (z-score),[7],-0.1
same,glycan array binding signal (z-score),[8],0.16
same,glycan array binding signal (z-score),[9],-0.181
same,glycan array binding signal (z-score),[10],-0.5
same,glycan array binding signal (z-score),[11],0.789
same,glycan array binding signal (z-score),[12],-0.005
same,glycan array binding signal (z-score),[13],-0.114
same,glycan array binding signal (z-score),[14],0.442
same,glycan array binding signal (z-score),[15],-0.578
same,glycan array binding signal (z-score),[16],0.33
same,glycan array binding signal (z-score),[17],-0.375
same,glycan array binding signal (z-score),[18],0.037
same,glycan array binding signal (z-score),[19],-0.392
same,glycan array binding signal (z-score),[20],0.582
same,glycan array binding signal (z-score),[21],0.454
same,glycan array binding signal (z-score),[22],1.59
same,glycan array binding signal (z-score),[23],2.08
same,glycan array binding signal (z-score),[24],-1.32
same,glycan array binding signal (z-score),[25],-0.206
same,glycan array binding signal (z-score),[26],-0.136
same,glycan array binding signal (z-score),[27],0.087
same,glycan array binding signal (z-score),[28],-0.557
same,glycan array binding signal (z-score),[29],1.1
same,glycan array binding signal (z-score),[30],2.04
